Results taken from PubChem BioAssay AID1508624 (National Center for Advancing Translational Sciences (NCATS), 2021).
Hit rate of the full screen: of about 48,000 compounds, about 120 (0.25%) were called active. Not shown: some 4% with an inconclusive outcome. The call rests on the fitted dose curve; in most records, active means well fitted activation curve with a large enough effect; inconclusive means small, poorly fitted or top-dose-only effect, or another doubt; inactive means no such curve, though single readings can be large or run the other way. This is one part of the list.

Experiment: Primary qHTS for Identification of Small Molecule Activators of Huntingtin-Antisense Promoter Activity; further: nearly all actives have a fitted effect of over 55% in size
Conditions: HEK293 HTT-AS promoter firefly luciferase reporter, 24 h; series mostly up to 57.5 µM; activity change, positive = activation: at the top concentration
Source text: Assay Provider: Russell L. Margolis M.D.
Department Neurology, Johns Hopkins University School of Medicine, Baltimore, MD
Huntington's Disease (HD) is a neurodegenerative disorder caused by a CAG repeat expansion in exon 1 of huntingtin (HTT). While there are currently no disease-modifying treatments for HD, recent efforts have focused on development of nucleotide-based therapeutics to lower HTT expression. As an alternative to siRNA or oligonucleotide methods, we hypothesized that suppression of HTT expression might be accomplished by small molecules that either (1) directly decrease HTT expression by suppressing HTT promoter activity or (2) indirectly decrease HTT expression by increasing the promoter activity of HTT-AS, the gene antisense to HTT that appears to inhibit expression of HTT.
We developed and employed a high throughput screen for modifiers of HTT and HTT-AS promoter activity using luminescent reporter HEK293 cells; of the 52,041 compounds tested, we identified 898 replicable hits. We used a rigorous stepwise approach to assess compound toxicity and the capacity of the compounds to specifically lower huntingtin protein in 5 different cell lines, including HEK293 cells, HD lymphoblastoid cells, mouse primary neurons, HD iPSCs differentiated into cortical-like neurons, and HD hESCs. We found no compounds which were able to lower huntingtin without lowering cell viability in all assays, though the potential efficacy of a few compounds at non-toxic doses could not be excluded.
SEQUENCE No. (1, 2, 3, etc.); […] (e.g., Cells, Incubation, Reagent, etc.); VALUE and DESCRIPTION.
1; Reagent; 4 uL; 2,500 Hek293 luciferase reporter cells per wells
3; Compound; 23 nL; Control inhibitor / compound library
5; Reagent; 2.5 uL; Firefly Luc reagent; Dual-Glo Luciferase Reporter Assay System (Promega)
6; Time; 10 min; room temperature incubation
7; Detection; Luminescence; FLuc
NOTES (numbers refer to sequence above)
1; High-throughput screening, measuring luminescence from a Hek293 luciferase reporter, was performed in 1,536 well white-walled tissue-culture treated plates. 2,500 cells were plated in 4 µL of Opti-MEM per well using a Multidrop Combi Reagent Dispenser (ThermoFisher).
2; Assay plates were cultured for 24 hours.
3; Control inhibitor (PTC124; final concentration of 50 uM) and compound library (at final concentrations of 460 nM - 57.5 uM) were added to the assay plate using the Kalypsis Pintool Robotic System equipped with 1536 pinheads.
4; Cells were then incubated for 24 hours at 37 degrees C prior to luminescence measurements.
5; In all cases, luminescence was measured using the Dual-Glo Luciferase Reporter Assay System (Promega) following the manufacturer's instructions.
6; Room temperature incubation.
7; Luminescence signal was obtained using the PerkinElmer ViewLux plate reader. Results were normalized to vehicle control (0% activity) and zero RLU (-100% activity).
Potency means the concentration at half of the fitted maximal effect.

SMILES | activity change, positive = activation | Potency
CCOc1cc2[nH]c(=O)n(CCCCCC(=O)NC(C)CC)c(=O)c2cc1OCC (stereo unspecified) | inactive: -7.26% | 
COc1ccc(N2CCN(Cc3nc(-c4ccc(C)cc4)no3)CC2)cc1 | inactive: 0.165% | 
CCOC(=O)N1CCc2c(sc3c2c(=O)n(-c2ccc(CC)cc2)c(=O)n3CC(=O)Nc2ccc(C)cc2)C1 | inactive: -16.5% | 
CCNc1ccc(-c2nc(-c3ccco3)no2)cc1[N+](=O)[O-] |  | active: 355 nM
Cc1ccccc1NC(=O)c1c(NC(=O)Cc2ccccc2)sc2c1CCC2 | inactive: -22.6% | 
O=C(NCCOCCn1c(=O)oc2ccccc21)Nc1ccc(Cl)cc1 | inactive: -25.9% | 
CCOc1ccc(CNC(=O)c2ccc3c(c2)c(C)c(C)n3Cc2ccc(Cl)cc2)cc1 | inactive: -21.2% | 
CN(C)S(=O)(=O)n1cc(/C=C(\NC(=O)c2ccccc2)C(=O)NCCCn2ccnc2)c2ccccc21 | inactive: -13.8% | 
COc1ccc(N2CC(NC(=O)CCc3ccccc3)CC2=O)cc1OC (stereo unspecified) | inactive: -8.57% | 
Cc1cc(C)c(NC(=O)c2cc(S(=O)(=O)N3CCN(c4ccccc4F)CC3)ccc2F)c(C)c1 | inactive: -29.3% | 
Cc1ccc2oc(=O)n(CCCOc3ccc(Cl)cc3)c2c1 | inactive: -10.6% | 
COc1ccc(-n2c3c(cc(-c4nc(-c5ccc(Cl)cc5)cs4)c2=O)C(=O)CC(C)(C)C3)cc1 | inactive: -5.22% | 
Cc1ccc2scc(N3CCN(c4ccc(F)cc4)CC3)c(=O)c2c1 | inactive: -0.407% | 
O=C1c2[nH]nc(-c3ccc(Br)cc3)c2C(c2cccc(O)c2)N1c1ccc(Cl)cc1 (stereo unspecified) | inactive: -68.6% | 
COc1ccc(NC(=O)c2sc3nc4n(c(=O)c3c2C)CCC4)cc1Cl | inactive: 14.9% | 
COc1ccc(C2c3c(n(C)c4ccccc34)C(=O)N2CC(=O)Nc2ccccc2F)cc1 (stereo unspecified) | inactive: -18.6% | 
O=C(CC1N=C2c3ccccc3N=C(SCc3ccccc3F)N2C1=O)NCc1ccc2c(c1)OCO2 (stereo unspecified) | inactive: -1.95% | 
COc1ccc(Cl)cc1NC(=O)CN(c1cccc(C)c1C)S(=O)(=O)c1ccccc1 | inactive: -30.3% | 
CCOc1ccc(C(c2c(O)cc(C)n(CCOC)c2=O)N2CCC(C)CC2)cc1 (stereo unspecified) | inactive: -11.6% | 
O=C(NCc1ccc(Cl)cc1)c1cnc2sc(N3CCCC3)nn2c1=O | inactive: -4.85% | 
COc1ccc(CCNC(=O)c2ccc3c(c2)N(Cc2cccc(Cl)c2)C(=O)CS3)cc1OC | inactive: -46.9% | 

SMILES | activity change, positive = activation | Potency
COc1ccc2c(c1)sc1ncc(C(=O)NCc3cccc(Cl)c3)c(=O)n12 | inactive: -5.76% | 
COc1cc(C)ccc1OCCn1c(-c2ccc(Cl)cc2)nc2ccccc2c1=O | inactive: 0.973% | 
CCc1ccc(CNC(=O)c2cc(-c3ccc(Cl)s3)nc3ccccc23)cc1 | inactive: -12.4% | 
Cc1ccc(N(C)S(=O)(=O)c2nnc(NC(=O)C3CCCCC3)s2)cc1 | inactive: 6.28% | 
Cc1ccc(CCNC(=O)c2ccc(CSCc3ccccc3Cl)o2)cc1 | inactive: -18% | 
CCOc1ccc(NC(=O)Cn2c(=O)oc3cc(S(=O)(=O)N4CCCCCC4)ccc32)cc1 | inactive: -23.5% | 
O=C(Cc1ccc(NC(=O)N2CCSc3ncccc32)cc1)NCCc1ccccc1 | inactive: -20.5% | 
COc1cc(OC)c(NS(=O)(=O)c2cc(-c3cnc(C)o3)ccc2OC)cc1Cl | inactive: -23.8% | 
Cc1ccc(NC(=O)CN2C(=O)CCn3nc(-c4cccn4C)cc32)cc1 | inactive: -0.0583% | 
COCCCNc1nc2c(S(=O)(=O)c3ccc(C)c(C)c3)nnn2c2ccc(Cl)cc12 | inactive: -24.7% | 
CCOc1ccc(OCC)c(NC(=O)CCC(=O)N2CCOc3ccccc32)c1 | inactive: -27.4% | 
CSc1ncc(C(=O)Nc2ccc(F)cc2F)c(-c2ccccc2)n1 | inactive: -9.79% | 
CCCC1=Nc2cc(C(=O)NCCc3ccc(OC)cc3OC)ccc2Sc2ccccc21 | inactive: -50.3% | 
Cc1ccc2oc(-c3cc(NC(=O)c4ccco4)ccc3Cl)nc2c1 | inactive: -8.73% | 
CCN(CC)CCNC(=O)c1nn(C)c2c1CS(=O)(=O)c1ccccc1-2 | inactive: -5.98% | 
CCOC(=O)c1ccc(N2C(=O)c3n[nH]c(-c4ccco4)c3C2c2ccc(O)c(OC)c2)cc1 (stereo unspecified) | inactive: -59.5% | 
CCC(=O)N1c2ccccc2CC1C(=O)NCCc1ccc(C)cc1 (stereo unspecified) | inactive: -8.76% | 
Cc1ccc(CNC(=O)c2nn(C)c3c2CS(=O)(=O)c2ccccc2-3)cc1 | inactive: -15.2% | 
Cc1cn(C)c(CC(=O)NCc2ccccc2Cl)c1C(=O)O | inactive: -11.3% | 
O=C(CSCc1nc2cccnc2n1C1CCCCC1)NCc1cccc(Cl)c1 | inactive: -23.3% | 
COc1ccc(-n2nc(C(=O)N3CCN(c4cccc(C)c4C)CC3)c3c4ccccc4n(C)c3c2=O)cc1 | inactive: 0.848% | 

SMILES | activity change, positive = activation | Potency
O=C(Nc1nc2nc(-c3ccccc3)cc(=O)n2[nH]1)c1ccc(Cl)cc1 | inactive: -14.6% | 
CNC(=O)COc1ccc(NC(=O)CCn2nc(-c3ccc(C)cc3)c3ccccc3c2=O)cc1 | inactive: -30% | 
CCOC(=O)c1ccccc1NC(=O)N1CCC(N2CCN(Cc3ccccc3)C(=O)C2=O)CC1 | inactive: -0.0383% | 
C[C@H]1[C@H](O)O[C@@H]2O[C@@]3(C)CC[C@@H]4[C@H](C)CC[C@@H]1[C@@]24OO3 | inactive: -37.6% | 
O=C(Cn1c(=O)n(CC2CCCO2)c(=O)c2ccccc21)Nc1cccc(Cl)c1 (stereo unspecified) | inactive: -17.7% | 
COc1cc(OC)c(Nc2nc3ccccc3nc2-n2nc(C)cc2C)cc1Cl | inactive: -18.1% | 
COC(=O)c1scc(-c2ccc(C)cc2)c1S(=O)(=O)N1CCN(c2ccc(OC)cc2)CC1 | inactive: -21.6% | 
CCS(=O)(=O)N1CCc2cc(C(=O)NCc3ccccc3)ccc21 | inactive: 5.16% | 
Cc1ccc(N)cc1O | inactive: -6.44% [at 116 µM, percent change from vehicle, -100% = no light] | 
Cc1ccc(CCn2c3c(c4cc(Cl)ccc42)CN(C)CC3)cn1 | inactive: 2.09% | 
CCCCN1CC(c2nc3ccccc3n2CCCCOc2ccc(C)c(C)c2)CC1=O (stereo unspecified) | inactive: -47.5% | 
Cc1ccc(F)c(NC(=O)Nc2ccc3snnc3c2)c1 | inactive: 6.43% | 
CC(=O)N1CCCc2cc(S(=O)(=O)N(C)CC(=O)Nc3cccc(C)c3C)ccc21 | inactive: -10.3% | 
CCOc1ccc(CCNC(=O)c2cn(CC)c3ccc(S(=O)(=O)N4CCCCCC4)cc3c2=O)cc1OCC | inactive: -27.7% | 
O=C1c2[nH]nc(-c3ccccc3O)c2C(c2cccc(Cl)c2)N1Cc1cccnc1 (stereo unspecified) | inactive: -30.5% | 
O=C(NCCN1CCN(c2cccc(Cl)c2)CC1)C1COc2ccccc2C1 (stereo unspecified) | inactive: -14.6% | 
Cc1cccc(CNC(=O)Cn2ccc3cc(S(=O)(=O)N4CCCC4)ccc32)c1 | inactive: -17.5% | 
O=C(c1ccc(CSc2nc3ccncc3n2Cc2cccc(F)c2)cc1)N1CCCCC1 | inactive: -21.3% | 
CCOc1ccc(N(CC(=O)NCc2ccc(C)cc2)S(=O)(=O)c2c(C)noc2C)cc1 | inactive: -5.37% | 
